Measured values from PubChem BioAssay AID1768 (National Center for Advancing Translational Sciences (NCATS), 2009).
Where “and” joins values, the source holds several entries; their conditions need not be identical. Equal entries are not always repeated. Among all 270,000 compounds or so, about 620 (0.23%) were called active. Inconclusive means that the source gave no clear call. Such entries were picked first, then a sample of the others. Calls follow the shape of the dose curve; as a rule, active = well fitted inhibition curve with a large enough effect in the polarisation, with a control signal flat (not every such curve was filed as active); inconclusive = small, poorly fitted or top-dose-only effect, or effect the other way, or a change in a side signal; inactive = no such curve, though single readings can be large or run the other way; the % refers to the polarisation. Potencies beside an inconclusive call are fits to weak or partial responses and may not hold up. “Side channel” marks fits to a control or component signal instead of the main read-out.
Potency is read from the fitted curve at half-maximal effect; tags tell the direction and shape of the fitted curve or compound fluorescence and quenching.

The compounds below were run against Menin (Homo sapiens) (UniProt O00255) (assay: qHTS Assay for Inhibitors Targeting the Menin-MLL Interaction in MLL Related Leukemias: Competition With Texas Red Labeled MLL-derived Mutant Peptide). Conditions: fluorescence polarization; series mostly up to 61.6 µM.
Chain of UniProt O00255 (O00255 whole entry, looked up): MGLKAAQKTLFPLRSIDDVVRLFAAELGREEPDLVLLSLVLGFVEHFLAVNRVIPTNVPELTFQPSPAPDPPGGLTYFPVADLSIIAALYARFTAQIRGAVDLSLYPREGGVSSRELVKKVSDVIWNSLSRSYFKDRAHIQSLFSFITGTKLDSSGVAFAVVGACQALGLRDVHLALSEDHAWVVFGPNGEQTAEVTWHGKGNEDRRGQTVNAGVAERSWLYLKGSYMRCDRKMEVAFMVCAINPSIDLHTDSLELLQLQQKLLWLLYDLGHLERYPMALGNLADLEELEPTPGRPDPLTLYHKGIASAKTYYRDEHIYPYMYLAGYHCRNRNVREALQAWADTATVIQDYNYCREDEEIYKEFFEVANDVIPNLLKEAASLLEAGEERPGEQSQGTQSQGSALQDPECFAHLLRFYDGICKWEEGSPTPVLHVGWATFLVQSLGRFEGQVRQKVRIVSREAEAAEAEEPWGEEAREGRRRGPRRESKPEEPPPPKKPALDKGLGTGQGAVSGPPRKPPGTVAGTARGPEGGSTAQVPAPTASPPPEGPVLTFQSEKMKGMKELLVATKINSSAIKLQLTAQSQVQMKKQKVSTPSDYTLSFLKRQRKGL
With `COc1ccc2[nH]cc(CCNC(=O)Cc3ccc(Br)cc3)c2c1` the Potency was inconclusive: 35.5 µM [quencher, side channel, single point]. In the case of `Cc1nonc1NC(=O)CSc1nc2ccccc2cc1C#N`, the Potency is reported as inconclusive: 39.8 µM [fluorescent, side channel, single point]. With `CC(C)COP(=O)(OCC(C)C)C(Nc1ccccc1)c1ccc2c(c1)OCO2` (stereo not drawn) the Potency was inconclusive: 1.58 µM [fluorescent, side channel, partial curve]. With `Nc1ccc2c(c1Cl)C(=O)c1ccc(N)c(Cl)c1C2=O` the Potency was inconclusive: 12.6 µM [quencher, side channel, partial curve]. `CCN1CCCC1CNC(=O)C1CCN(Cc2nc(-c3cccc(Br)c3)oc2C)CC1` (stereo not drawn) was tested, and the Potency was inconclusive: 39.8 µM [inhibitor, single point]. For `CC(C)(C)c1ccc(C(=O)N/C(=C\c2cccc([N+](=O)[O-])c2)C(=O)Nc2cccc(C(=O)O)c2)cc1`, the Potency was inconclusive: 14.1 µM [quencher, side channel, partial curve]. For `COc1ccc(C(=O)c2sc(Nc3ccccc3)c(C(=O)Nc3ccc(OC)c(OC)c3)c2N)cc1`, the Potency was inconclusive: 28.2 µM [quencher, side channel, partial curve]. For `COCCn1c(N)c(C(=O)OCc2ccccc2)c2nc3ccccc3nc21`, the Potency was inconclusive: 25.1 µM [quencher, side channel, partial curve]. For `O=C(CCCn1c(SCC(=O)NC2CCCCC2)nc2ccccc2c1=O)NCC1CCCO1` (stereo not drawn), the Potency was “inactive”. In the case of `CCCCS(=O)CC(COC)OC(=O)c1ccccc1` (stereo not drawn), the Potency is reported as inconclusive: 39.8 µM [inhibitor, single point]. `O=C(Nc1ccc(O)cc1)c1cc2ccccc2c(=O)s1` was tested, and the Potency was inconclusive: 12.6 µM [quencher, side channel, partial curve]. `CCN1CCN(C(=O)C2CCN(S(=O)(=O)N3CCC4(CC3)OCCO4)CC2)CC1` was tested, and the Potency was “inactive”. With `CNc1c2c(nn1C)CCCC2` the Potency was inconclusive: 1.12 µM [inhibitor, full curve, poor fit]. With `O=C(Nc1ccc(N2CCOCC2)cc1)Nc1ccc2nc(-c3ccco3)c(-c3ccco3)nc2c1` the Potency was inconclusive: 7.94 µM [quencher, side channel, full curve]. For `CCCOc1ccc(C(=O)NNC(=S)NC(=O)c2ccccc2)cc1`, the Potency was inconclusive: 28.2 µM [quencher, side channel, single point]. In the case of `CC(C)=CCc1c2c(c3occ(-c4ccc(O)cc4)c(=O)c3c1O)C=CC(C)(C)O2`, the Potency is reported as “inactive and inconclusive: 10 µM [quencher, side channel, partial curve]”. In the case of `COc1cc(/C=N/Nc2nc3ccccc3s2)ccc1OC(=O)c1ccccc1F`, the Potency is reported as inconclusive: 6.31 µM [quencher, side channel, partial curve]. In the case of `CCn1c(CC(=O)Nc2cccc(OC)c2)nnc1SCC(=O)Nc1nccs1`, the Potency is reported as inconclusive: 31.6 µM [inhibitor, single point]. In the case of `CCC1CCC(N2CCN(c3ccc(F)cc3)CC2)CC1` (stereo not drawn), the Potency is reported as “inactive”. In the case of `COCC1CCN(C(=O)CCc2nnc(C3(c4ccc(Cl)cc4)CCC3)o2)C1` (stereo not drawn), the Potency is reported as inconclusive: 20 µM [fluorescent, side channel, partial curve]. In the case of `C/C(Cl)=C\Cn1c(N2CCCCCC2)nc2c1c(=O)n(C)c(=O)n2C`, the Potency is reported as inconclusive: 17.8 µM [fluorescent, side channel, single point]. With `CCCn1c(-c2cccs2)nc2c1c(=O)[nH]c(=O)n2Cc1ccccc1` the Potency was inconclusive: 12.6 µM [fluorescent, side channel, partial curve]. `CN1CCN(c2c(F)cc3c(=O)c(C(=O)O)cn4c3c2SCC4)CC1` was tested, and the Potency was “inactive”. `COc1cc2c(C#N)c(N3CCc4ccccc4C3)nc(N)c2c(N)n1` was tested, and the Potency was inconclusive: 28.2 µM [quencher, side channel, partial curve]. With `COc1ccc(Cn2c(SCc3ccccc3C)nc3cc(OC)c(OC)cc3c2=N)cc1` the Potency was inconclusive: 3.98 µM [inhibitor, partial curve, poor fit]. `COC(=O)c1c(NC(=O)Cn2cnc([N+](=O)[O-])n2)sc2c1CCC(C)C2` (stereo not drawn) was tested, and the Potency was inconclusive: 12.6 µM [quencher, side channel, partial curve]. For `CC(=O)NC(CC(=O)N(C)Cc1c(F)cccc1Cl)c1ccccc1` (stereo not drawn), the Potency was “inactive”. With `CCc1cccc(C)c1NC(=O)COC(=O)CNS(=O)(=O)/C=C/c1ccccc1` the Potency was inconclusive: 17.8 µM [inhibitor, partial curve]. With `CSc1ncc(CN2CCc3c([nH]c4ccccc34)C2c2cccc(O)c2)cn1` (stereo not drawn) the Potency was inconclusive: 12.6 µM [quencher, side channel, partial curve]. With `Cc1cccc2sc(NNC(=O)c3cc(=O)c4ccccc4o3)nc12` the Potency was inconclusive: 14.1 µM [quencher, side channel, partial curve]. In the case of `Nc1ccc2nc(SCc3ccc([N+](=O)[O-])cc3)sc2c1`, the Potency is reported as inconclusive: 20 µM [quencher, side channel, partial curve]. In the case of `O=c1c2ccccc2nc(/C=C/c2ccccc2)n1CCCO`, the Potency is reported as inconclusive: 39.8 µM [inhibitor, single point]. In the case of `CCOc1ccc(N(C(=O)c2snc(C(N)=O)c2N)C(C(=O)NCC2CCCO2)c2ccc(C)o2)cc1` (stereo not drawn), the Potency is reported as inconclusive: 39.8 µM [inhibitor, partial curve]. With `COc1cc(/C=C2\SC(=Nc3ccccc3)NC2=O)cc(Cl)c1O` the Potency was inconclusive: 12.6 µM [quencher, side channel, partial curve]. With `CCc1ccc(OCC(=O)NC(NC(=S)Nc2ccccc2)C(Cl)(Cl)Cl)cc1` (stereo not drawn) the Potency was inconclusive: 39.8 µM [inhibitor, single point]. `CN1CCN(C(=O)c2ccc(CSc3nc4ccncc4n3Cc3ccc(F)cc3)cc2)CC1` was tested, and the Potency was “inactive”. In the case of `Cc1c(Cl)cccc1NC(=O)CC1Sc2ccccc2NC1=O` (stereo not drawn), the Potency is reported as inconclusive: 39.8 µM [fluorescent, side channel, single point]. With `O=C(Nc1cccc2nsnc12)c1ccc(-c2cccc(Cl)c2)o1` the Potency was inconclusive: 22.4 µM [quencher, side channel, partial curve]. With `O=C(C1=C[C@H](C2CCCCC2)C[C@H](OCc2ccc(CO)cc2)O1)N1CCOCC1` the Potency was inconclusive: 14.1 µM [fluorescent, side channel, partial curve]. In the case of `Fc1ccc2c(c1)C(c1ccc(N3CCOCC3)cc1)=NNC(c1cccs1)=N2`, the Potency is reported as inconclusive: 28.2 µM [quencher, side channel, single point]. With `C/C(=N\NC(=O)c1cc([N+](=O)[O-])cc([N+](=O)[O-])c1)c1ccco1` the Potency was inconclusive: 6.31 µM [quencher, side channel, single point]. In the case of `CC(=O)N1CCC(=NNc2ccnc3cc(Cl)ccc23)CC1`, the Potency is reported as inconclusive: 28.2 µM [quencher, side channel, single point]. With `COc1ccc(S(=O)(=O)N2CCC(n3cnc4ccccc43)CC2)cc1` the Potency was “inactive”. In the case of `O=C(NCc1nc2ccccc2[nH]1)c1cccc(S(=O)(=O)N2CCOCC2)c1`, the Potency is reported as “inactive”. With `COC(=O)CSc1nc2cc(C)ccc2cc1C#N` the Potency was “inactive”. `O=C(O)CC(c1ccc(Cl)cc1)N1Cc2ccccc2C1=O` (stereo not drawn) was tested, and the Potency was inconclusive: 17.8 µM [inhibitor, partial curve]. In the case of `CCOC(=O)C1=C(CNCc2ccc(C)cc2)NC(=O)NC1c1cc(C)ccc1C` (stereo not drawn), the Potency is reported as inconclusive: 3.98 µM [fluorescent, side channel, full curve]. With `O=c1c2cc(N3CCOCC3)ccc2[nH]c(=S)n1CCCN1CCCCC1` the Potency was inconclusive: 39.8 µM [inhibitor, single point]. With `O=C(O)c1cc(-c2cccs2)nn1-c1cccc(Cl)c1` the Potency was inconclusive: 39.8 µM [quencher, side channel, single point]. In the case of `COc1ccc(Cn2c(=S)[nH]c3cc(C(=O)N4CCCCC4)ccc3c2=O)cc1`, the Potency is reported as inconclusive: 39.8 µM [inhibitor, single point]. For `COc1ccc(N2CCN(C(=O)CCc3ccccc3OC)CC2)cc1`, the Potency was inconclusive: 22.4 µM [fluorescent, side channel, single point]. In the case of `O=c1[nH]cccc1-c1nc2ccccc2n1Cc1cccc(F)c1`, the Potency is reported as inconclusive: 4.47 µM [inhibitor, single point]. `O=C(/C=C/c1ccc(Cl)c([N+](=O)[O-])c1)Nc1cccc(NC(=O)c2ccco2)c1` was tested, and the Potency was inconclusive: 10 µM [quencher, side channel, partial curve]. With `O=C(Cc1ccc(-c2ccccc2)cc1)Nc1ccccc1` the Potency was inconclusive: 39.8 µM [fluorescent, single point]. For `COc1ccc(N2CCN(CC(=O)c3ccc(Cl)cc3)CC2)cc1`, the Potency was inconclusive: 39.8 µM [inhibitor, single point]. For `Cc1ccc(S(=O)(=O)c2nc(Nc3ccccc3)sc2Cl)cc1`, the Potency was inconclusive: 28.2 µM [quencher, side channel, single point]. For `Cc1c(C(=O)N/N=C/c2cccnc2)sc(N)c1C#N`, the Potency was inconclusive: 39.8 µM [inhibitor, single point]. `CC(C)(C)NC(NC(=O)Cc1ccccc1)C(Cl)(Cl)Cl` (stereo not drawn) was tested, and the Potency was inconclusive: 3.55 µM [inhibitor, full curve, poor fit].
